Drawing on article PMC12136788, this text covers binding signal for 22 molecules.

This is one part of the list.

T1: UNK ZnF1-6 (called full-length) (human, UniProt Q9C0B0 30-357)
T1 sequence: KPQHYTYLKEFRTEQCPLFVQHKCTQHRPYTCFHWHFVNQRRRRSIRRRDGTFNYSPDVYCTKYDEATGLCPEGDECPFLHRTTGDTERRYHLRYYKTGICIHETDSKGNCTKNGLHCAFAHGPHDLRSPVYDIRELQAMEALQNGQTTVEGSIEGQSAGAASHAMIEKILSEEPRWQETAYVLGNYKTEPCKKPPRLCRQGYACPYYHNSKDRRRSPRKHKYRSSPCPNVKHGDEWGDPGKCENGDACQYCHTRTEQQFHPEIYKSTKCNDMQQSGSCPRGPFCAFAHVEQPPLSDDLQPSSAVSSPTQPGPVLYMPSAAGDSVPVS

B1: chr19:22391518:22392981:-|CDS|ENSG00000197360|control|control|control (ssRNA)
RNA: GGGAGUUCUACAGUCCGACGAUCCAUAAGAGAAUUCAUGCUGGAGAGAAAUUCUACAAAUGUGAAGUAUGUAGCAAAGCCUUUAGCCGGUUCUCACACCUUACUACACAUAAGAGAAUUCAUACUGGAGAGAAGCCCUACAAACAACAGAGGAUUGAGCAUCA
B2: chr14:52864448:52864598:-|CDS|ENSG00000073712|unk|total|mutant (ssRNA)
RNA: GGGAGUUCUACAGUCCGACGAUCGAUGGCAGCCUGCAGAUCCGCCUCCAAAGGCAAGACCAUGGCGGACAGUUCUUACAACUCCGAAGUUCAGAAUAUUCUUUCCUUUCUGAAGAUGCAGCAUUUAAACCCAGAUCCUCAGUUCAACAGAGGAUUGAGCAUCA
B3: chr10:97759570:97759671:+|3pUTR|ENSG00000155256|msi1|FALSE|unique (ssRNA)
RNA: GGGAGUUCUACAGUCCGACGAUCGACUGAGCGAGUGGACUUAGGGCUGGGCAGGCAGUAGCCACCAGAGGGCAGCAGCGAACUAGGCCAGGCCUGACUGGGGUCUGAAGAUCAGGGUCAGUGUGGCUGUGCCUGGGAAUUCCACAACAGAGGAUUGAGCAUCA
B4: chr19:57572896:57572997:-|CDS|ENSG00000083817|unk|FALSE|unique (ssRNA)
RNA: GGGAGUUCUACAGUCCGACGAUCCAUCGGAGAAUCCACACUGGAGAAAGGCCUUAUGUGUGUGGUCAGUGUGGGAAAUCAUUUAGCCAAAGAGCCACCCUCAUUAAACAUCACAGAGUUCACACUGGAGAAAGGCCUUACGAGCAACAGAGGAUUGAGCAUCA
B5: chr11:71804996:71807656:-|three_prime_utr|ENSG00000289716|control|control|control (ssRNA)
RNA: GGGAGUUCUACAGUCCGACGAUCGAGCCCAAGGAUGAAGGGGGCUCCCUCACUCUGUUACUGUGAAGAGGAAGCCUGAGGUGUAGCAGGCCCAGGCCCCAGAAGUAUGGAAAAAAAUGAGGUAGGGAGGGAGGGGACCUCAGGCAACAGAGGAUUGAGCAUCA
B6: ENSG00000105576:stop:overlap|stop_codon|ENSG00000105576|stop_codon|NA|stop_codon (ssRNA)
RNA: GGGAGUUCUACAGUCCGACGAUCAGUUCUCUGAGCAAUUCCCGCCGCUGCUCAAGGAGAGGCUGGCGGCUUUCUAUGGGGUCUAGGUGAUCAUGGAGACUGCCAGGUUUCUGUCUGCGUCGUCGUCGGAGGGAUUACUGGGGACAACAGAGGAUUGAGCAUCA
B7: chr7:101138926:101139078:+|3pUTR|ENSG00000106366|msi1|total|mutant (ssRNA)
RNA: GGGAGUUCUACAGUCCGACGAUCUAUUUUAAAGACCAAUUUAUGGGAGAAUUGCACACAGAUGUGAAAUGAAUGUAAUCUAACCGAAGCCUAAUCAGCCCACCAUGUUCUCCACUGAAAAAUCCUCUUUCUUUGGGGUUUUUCCAACAGAGGAUUGAGCAUCA
B8: chr6:26414640:26414744:+|3pUTR|ENSG00000026950|unk|total|mutant (ssRNA)
RNA: GGGAGUUCUACAGUCCGACGAUCCAGGCAGAGCAAAUACCCCCGAGAUUCUCUGUGAUACCGGAAAUUUGGAUGAAGGGAGCCCGAAGAAAUACAGGGAUUUUUUUUUUUUUUUAAGAUGGAGUCUUACUCUGUUGCCCGGCUCAACAGAGGAUUGAGCAUCA
B9: chr1:246907611:246907713:-|CDS|ENSG00000153207|unk|FALSE|bound_elsewhere (ssRNA)
RNA: GGGAGUUCUACAGUCCGACGAUCUGAAGUACCACACAUUAGAGAAAGUGUAAUGAGACAAGGGCGCCAUCUGUGUUUCCAGUUAGUAAGUCCAACAGGAACAGCUGUUUCAACUCUUAGUUACAUAAGCAGGACAAAUCAGCUCAACAGAGGAUUGAGCAUCA
B10: chr1:162785649:162785750:+|3pUTR|ENSG00000162733|unk|FALSE|unique (ssRNA)
RNA: GGGAGUUCUACAGUCCGACGAUCUGAAUGUUGUUUUUUUGAAUGAACAUAAGAUAGAAACAAAAACUUCUCAUCCAGUUAACUAGAGUGAAUGUAGGGAGAAUUGUUUUGCUUGUAACAUGGAGAGUUUAUUUUCAAGUGAGGCAACAGAGGAUUGAGCAUCA
B11: chr1:92323927:92324037:+|CDS|ENSG00000122484|unk|total|mutant (ssRNA)
RNA: GGGAGUUCUACAGUCCGACGAUCAGUGCAGAGCAUUUUAAGAGAAAAUUUGCCAAAUCAAACCAAGUGUCCCGGUCAGUGUCCCGUUCAGUGCAGGUGUGUCCUGAAGUUGGAAAGAGAAACUUACUUAAAGUUUUGAAGGAGCAACAGAGGAUUGAGCAUCA
B12: chr1:11013840:11013957:+|CDS|ENSG00000120948|unk|FALSE|unique (ssRNA)
RNA: GGGAGUUCUACAGUCCGACGAUCGGCGUGUGGGCUUCGCUACAGGAAUCCAGUGUCUCAGUGUAUGAGAGGUGUCCGGCUGGUAGAAGGAAUUCUGCAUGCCCCAGAUGCUGGCUGGGGAAAUCUGGUGUAUGUUGUCAACUACAACAGAGGAUUGAGCAUCA
B13: ENSG00000198589:be:win_6151|CDS|ENSG00000198589|bound_else_gene|NA|bound_elsewhere_windowed (ssRNA)
RNA: GGGAGUUCUACAGUCCGACGAUCACUCUGUCAUCCGUGGAUGAGAAAGAUUUAGAGAAUCUUGCCGGUCCUGUUAGCCUGAGCACACCAGCUCAGCUUGUGGCCCCCUCUGUUGUAGUAAAGGGCACUCUUUCUGUCACCUCCCAACAGAGGAUUGAGCAUCA
B14: chr9:15171111:15171212:-|3pUTR|ENSG00000155158|unk|total|mutant (ssRNA)
RNA: GGGAGUUCUACAGUCCGACGAUCCUGCUUUAAAUGAUAUGUAAAAUAUCAAUAAUUUUUACACUUAAGAUGUUGGUAAGACCCCGUUUUCUAAUCUCUCCCGCACUGUGAUGUCUCCUUGCCGAUAAUCUGGACCUUGCUCCGCAACAGAGGAUUGAGCAUCA
B15: ENSG00000170502:stop:overlap|stop_codon|ENSG00000170502|stop_codon|NA|stop_codon (ssRNA)
RNA: GGGAGUUCUACAGUCCGACGAUCUGGCUGAGAAACGAGAUGCACACUGGAGCGAGGACUCUGAAGCUGACUGCCAUGCGUUGUAGCUGAUGGUCUCCGUGUAAGCCAAAGGCCCACAGAGGAGCAUAUACUGAAAAGAAGGCACAACAGAGGAUUGAGCAUCA
B16: chr1:35359206:35359314:+|CDS|ENSG00000146463|unk|FALSE|bound_elsewhere (ssRNA)
RNA: GGGAGUUCUACAGUCCGACGAUCAAAGACUUUCCUAAACAAUUUGAUCAGGUUUCUGUCUUUAAAUCAAUACGGAAAGAUUUUAGUCUAGUAAGAGAAAACAGCAAAGAGACAUUUUCUGGAAAGGAGAAAAAUAGAGACCUACAACAGAGGAUUGAGCAUCA
B17: chr1:110340924:110341033:+|CDS|ENSG00000162775|unk|FALSE|unique (ssRNA)
RNA: GGGAGUUCUACAGUCCGACGAUCUGCUGCCUGGACCCAUAUGCGGGGCUUCCCACUUGGUGGCCCAGAUCGACGCCUUAGAGUAGACUUUGCCGACACCGAACAUCGUUACCAGCAGCAGUAUCUGCAGCCUCUGCCCUUGACCAACAGAGGAUUGAGCAUCA
B18: chr9:35056615:35056731:-|3pUTR|ENSG00000165280|msi1|total|mutant (ssRNA)
RNA: GGGAGUUCUACAGUCCGACGAUCCCCUAUCCAACCUGGGCCGGUGGGCCGGGGCCACAGUUGCUGGAUGUUUAUACCGAGAGCCGGUUGAUUUAUUUUACAUGCUUUUGAGUUAAUGUUGGAAAACUAAUCACAAGCAGUUUCCAACAGAGGAUUGAGCAUCA
B19: ENSG00000086827:stop:overlap|stop_codon|ENSG00000086827|stop_codon|NA|stop_codon (ssRNA)
RNA: GGGAGUUCUACAGUCCGACGAUCUAAUUCGUGCCUUGUUUCAGAACACAGAAAGAAGAGCAGCUGCCCUUGCUAAAAUUAAAUAGCUCCAUCUUCUUAAGAAAGCUAUGUCUUGAAUAUGUGGAUUCUUCCCUUGGCAUAAUUCAACAGAGGAUUGAGCAUCA
B20: chr11:83166318:83166419:+|CDS|ENSG00000165494|unk|total|mutant (ssRNA)
RNA: GGGAGUUCUACAGUCCGACGAUCGGGACAAAACCAGGGAGAUCGAGUACCCGAAAGCGAUCAAGAUCUCGAUCACCCAAGUCCCGGUCACCAAUUAUACAUUCCCCAAAGAGAAGAGACCGGCGGUCACCCAAACGAAGGCAACAACAGAGGAUUGAGCAUCA
B21: chr2:222942681:222942782:+|3pUTR|ENSG00000123983|msi1|FALSE|unique (ssRNA)
RNA: GGGAGUUCUACAGUCCGACGAUCAAAAUUAGUGUUUUUCCUAGUUUGCACUGAUGCGUGUAUGGAUGUGUGUGAGUCAGUGGUAGCUUAUUUAAAAAGCACCUUAUCCUUUCUCCCAUAACCUUUGUACACUAAAAAAUGAAACAACAGAGGAUUGAGCAUCA
B22: chr5:154817497:154817598:+|3pUTR|ENSG00000155506|msi1_unk|total|mutant (ssRNA)
RNA: GGGAGUUCUACAGUCCGACGAUCUUAUUGAGAGUAUCUGCUUUCCAGGCUGAAGUGAUUCAUUCAUUAUUCCCGUCCUGCUUCCGUCCUUUGUAAUUUGUGGUAAUUAUGCUUUUCUUUUUAAUACAAAAAAAUGUAUAAAAACAACAGAGGAUUGAGCAUCA

In the assay the target is T1, UNK ZnF1-6 (called full-length). The experiment in a line: nsRBNS (natural sequence RNA bind-n-seq); RBNS binding buffer (assumed for nsRBNS): 25 mM Tris pH 7.5, 150 mM KCl, 3 mM MgCl2, 0.01% Triton X-100, 500 ug/ml BSA, 20 U/ml SUPERase-In, 4 C; UNK is unkempt and MSI1 is Musashi-1; names of the RNAs are library labels; protein concentration not given here; high values mean tight binding.
In the case of B1, the binding signal stood at 0.419 enrichment R.
The same measure for B2: 0.535 enrichment R; for B3: 1.37 enrichment R; for B4: 0.644 enrichment R.
As for B5, the figure is 1.01 enrichment R.
The same measure for B6: 0.547 enrichment R.
As for B7, the binding signal is 0.352 enrichment R.
The same measure for B8: 1.51 enrichment R; for B9: 0.797 enrichment R.
As to B10, the binding signal is 0.683 enrichment R.
The same measure for B11: 0.623 enrichment R; for B12: 0.762 enrichment R; for B13: 0.587 enrichment R.
The same measure for B14: 0.527 enrichment R; for B15: 0.907 enrichment R; for B16: 0.815 enrichment R.
As for B17, the figure is 0.796 enrichment R.
For the molecule B18, the binding signal is 0.742 enrichment R.
The same measure for B19: 1.49 enrichment R; for B20: 0.487 enrichment R; for B21: 0.982 enrichment R.
As for B22, the figure is 0.631 enrichment R.
